Source: the supplement of paper PMC10681739
Over roughly 4,000 sequences, “arbitrary fluorescence units” has its median near 830; the highest 2% begin near 6,500. This part holds few or none of the hits.

molecular target: RUNX1 (UniProt Q01196); assay: RUNX1 binding intensity (PBM fluorescence), RUNX1 alone (arbitrary fluorescence units); higher = stronger binding; conditions: RUNX1 concentration 2 nM; ETS1 concentration 0 nM
Experimental: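 gcPBM on 36-bp genomic-derived probes (partner site mutated) containing one RUNX1 site and no ETS1 site. Recombinant human RUNX1 (2 nM) was incubated alone or with ETS1 (25 nM) and detected by anti-RUNX1 antibody fluorescence. Values are medians over 4 replicate spots (not normalised). The probes sit in constant array flanks that are not printed.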
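Note: Full-length recombinant human RUNX1 bound to double-stranded DNA microarray spots, detected with an Alexa488-labelled secondary antibody after the anti-RUNX1 primary, read as scanned spot fluorescence.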

UniProt Q01196, sequence (Q01196 whole entry): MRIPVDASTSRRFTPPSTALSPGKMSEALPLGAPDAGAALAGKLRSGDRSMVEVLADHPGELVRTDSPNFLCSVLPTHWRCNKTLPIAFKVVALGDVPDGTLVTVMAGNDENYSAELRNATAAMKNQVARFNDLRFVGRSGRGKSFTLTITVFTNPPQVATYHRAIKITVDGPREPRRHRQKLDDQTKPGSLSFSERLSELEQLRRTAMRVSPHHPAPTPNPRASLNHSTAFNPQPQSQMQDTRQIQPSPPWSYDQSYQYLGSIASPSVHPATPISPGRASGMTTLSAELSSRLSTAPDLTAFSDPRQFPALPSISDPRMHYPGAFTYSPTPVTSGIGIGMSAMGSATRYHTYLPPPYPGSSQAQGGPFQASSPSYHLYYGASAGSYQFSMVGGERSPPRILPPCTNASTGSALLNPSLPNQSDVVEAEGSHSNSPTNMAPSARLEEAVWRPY

Row | Sequence | RUNX1 binding intensity
1 | ACCCTCTGTGGTTTAGGCTAGCGGGCTTTCAGCCTA | 2590
2 | GTAAAAGAGGACGTAACACCTCCTTGCGGTTGAGAC | 1430
3 | GCAACTGAACAGTAAACTAAAAAACCACAACACTTA | 1790
4 | AGCCAGATCCTCCCTTAGGTCTGACCGCAGCTTAAC | 2150
5 | GCTGTCCGTTCCCGAGATGTTAATGCGGGGTCTTGC | 824
6 | CGGCCCGCAGCAGAACAGCCAGCGCACCTCCTCCTC | 945
7 | AGGCTGTGGCGGCAGTGGTCGCGTTACCGCTTGTTT | 734
8 | TGCTCAGCATGTTTAAAAACAAAACCACGCGTCTAT | 694
9 | TACCCTTGTGGGCCCCCCGGCGACGCTTGCTGCTCC | 765
10 | TGAAACCACATGAAACCAGAGTAGCCTCCGTACAGG | 1040
11 | GGGTCTCCAGCAAGCCACTCACCACAAACTTTGACA | 1020
12 | CCTGTTCGGGGCTCCGTACACCCAGGCCCGCAGCTG | 853
13 | CTCCTCCCCCACTGCCTATTTTTACCGCAGTTGCAC | 2110
14 | GCCTCCGAGTCTATGGCAGCCTGTGGCTCACCACAC | 873
15 | CCAGCAAGTTCAAACTGGGTGGAGCCCACCGCAGCT | 702
16 | GATTTCATGTTTGAGGTTTAACTTCAGTAGCTTGGG | 832
17 | CGGCCGCGGTTTAGGGCGGCCCCGTAAGCGGGGCGC | 1350
18 | CTGCCCACCGAAAACGATGGCGCGAGGCCGCAGAGC | 823
19 | ACAAGCCAGTTCCCATTCTTGTGGCTGTAGAGGGGA | 852
20 | GCGGGAGGCCTCCTCACATTACCGCTCCGCGTAAGT | 726
21 | CTGTGGTTGGGCTGTGTAGGCGCGGATTGCCTGGCT | 906
22 | TGGTGTGAGGTGTGGCTTTGTCTTCATGAACGGTGT | 761
23 | GACATCTTCAGGTTGCTACAGGTTACGGCGGTTGCT | 784
24 | CTTCAGGAGACCACAGTTCTCAGGCTTCGTCCCTTC | 956
25 | GAGCAGGGAGCACCCCCAGCACAGGCCTGCGGTGAG | 781
26 | CGGCAGTGGGTTGGAGGTGTGGCGGGAATGGTTGGG | 910
27 | GCACCAGAGCAAGCTGAGGAGGAGGTGCGGTGGCTG | 720

Row | Sequence | RUNX1 binding intensity
28 | AATTCCCAGCAAGCACTCGGCAGCCACAAACTGATG | 823
29 | GTGCAGGCCGTAAGGAAAAGGGTTGTGGGGCTCATT | 789
30 | GGTTTCGCTCCCGGGTTAGGCGGCCGCAGAAGCGTA | 808
31 | ACTCCACCTACCCACAGAACGCACTGCCTCAGAAGC | 1350
32 | ACTTCTGAGAAAACCTCAGCGCTTCATGGAGAAACT | 919
33 | CCAGAACCCGGGACCACAGCACGGAGACGGTCCGGG | 710
34 | CAAACCACATGCCCACCTGGGGGACATGAAGAGGAC | 870
35 | GTAACCACGGCGGCCGCCACGCCCCGTTGCCTGGTC | 970
36 | TGGCCAGGGAGCCACTCGATTGCCGGCGCCCGCAGC | 703
37 | CAAAACACCTGTGGTTTTGCAAAAGGAGGTGATTTC | 1870
38 | GGTGTTACACCGCAGCCTTCCATGAAGGGGCAGGGG | 1220
39 | CACTCCCCCATTCAGGCTGCAGGTTGAGGTTTGGAA | 821
40 | GACCGAGAGGACGCAGCAAGGATCCTGCGGTTCCAG | 897
41 | GTGTTCAGACGGAGGCGTTATTCAGTGGTCAGAGCA | 773
42 | GCTCCAACCCGCGCACTTTCGGAGAACGGCAAGGGG | 885
43 | TGGAGCCAAGCAGCCACAAACCCGGCATAGCCTGCT | 734
44 | ACCTTCGCCGCGGTCCCCAGCCTCTTCATGTCCCGG | 1210
45 | TGCCAGATGGAACGCCTGGCACAGCCACCGCTCGCT | 686
46 | TTGGTGGTTAGACCTGGGGAGGGGCAGCATGTGGCA | 815
47 | GGAAAAGGCAGTGGCTTTGACTTGCGGGCAGGGAGA | 771
48 | TCCACGGTAACCGCGTTCGCCGTAAGGCCGCGACCC | 928
49 | CGGCTCCTGCGGGCCCTCACACCCTGAAACACCGCT | 1810
50 | CCTTCCTTGCTGCTGTGTACGTTGTGGTCACAGCAC | 1020
51 | CACGGTCTTTACCGCTCAGCTTCTCGGAGTCCGCGC | 797
52 | GGAGCGCGGTGGGGACGTTTAAAGGCAATTTACAAT | 711
53 | AGCTTTCCATCAGGGTCCCTGTCCGTGCGGTGCAGC | 766
54 | TCCTAGCCATCTCCTATCCACCCTGTGGCTAATTTG | 1060

Row | Sequence | RUNX1 binding intensity
55 | AGCAACCGCCGTAACCTGTAGCAACCTGAAGATGTC | 1080
56 | GAACTCCCGGGACCACGTGACGTAGAACCACAACAA | 897
57 | GAGGGGAGCAAGGCCTGGCTCGGGCTGGGCCGCAGC | 654
58 | GGTCTGCGGCGCGCGGGATGCTGGGCAATGTAGTTT | 784
59 | CATGAATCCCCACACACAACATGAAGGGGGTGTGGC | 738
60 | TGAATATTCTTGCGCACGTACCCACATGGCTCACTT | 761
61 | GGCATGAAGGAATGGCGGGAACGGGGCCCGCAGGGC | 679
62 | GGGCTGCGGCGCTGGAACTGGACCAATCCAGAATCG | 687
63 | GCGATTCCCCCTTGGGGTTATAGCAACCACCTCCTC | 794
64 | GCTGGGCCATGCTGCCACATGCACCGCATCTCTGGG | 797
65 | GCTCTGTGGCCTCCCCAGAGGTCAGATCAGGCAATG | 782
66 | GGTGGACCTGTGGTTTGCAACACAGAAAGAGACTAT | 1640
67 | ACCCCAAGCCCACAAACCCACCTGAAGGAACCAACT | 1200
68 | TCTCTTTCTGTGATGGAAATACATTGAGGTTTGCGA | 840
69 | GGCCAAGAAAACCACTCAGAGGAGATCACAGGCCTG | 687
70 | GCATCTGCGGTTCAAGTGGCCACTGCCTGCCAGCCG | 1760
71 | AAAACAACTCCCATCCCCTCTCTCTCCACCACAGTC | 1280
72 | CTCGCCGCAGAGACGCAGACGCGTCCTTACGGCGGG | 795
73 | CTACGACCTCCGTGATGCCTTGCGGTTGCTGTAGCC | 2440
74 | TTAGCACACCCTGGGTACACAGACCACAGCCTCCTC | 1040
75 | CGTACCAAAAACCCACATGGTCAGGCAGTGACTCAC | 1000
76 | ATCGGCGGTCCCGCAGGTCCCGTATGTAGCGGACAG | 739
77 | TCGTCTCTTCTGGATCCCTCCTGCACCGCCCACAGC | 1130
78 | GAAGTGTGCTCTTACGGTACCTGCGGTTCGTTGCGC | 783
79 | CCTGACCTCCTCCTCCCCCTCCCGCCACAATTCCGC | 1540
80 | TGGAGCTGTTGCGGGGTCCGCGGGGAACTCTTGGCA | 697
